This is one part of the list.
Assays:
Test in all cases: glycan array binding signal (z-score within array); higher = stronger binding
Conditions in all cases: glycan notation: IUPAC condensed, linker removed
Gal(a1-3)Gal(b1-4)GlcNAc = target: Gal(a1-3)Gal(b1-4)GlcNAc
Method in brief: (§1)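 The binding signal is a Z-score computed within each array and averaged over linkers. Arrays of the same protein sequence at different concentrations or buffers were also averaged together. Data originate from 3228 arrays in the Consortium for Functional Glycomics database, kept only where the protein sequence was available.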

[1] = target: Gal(a1-3)Gal(b1-4)GlcNAc(b1-2)Man
Method in brief: as §1

[2] = target: Gal(a1-3)Gal(b1-4)GlcNAc(b1-2)Man(a1-3)[Gal(a1-3)Gal(b1-4)GlcNAc(b1-2)Man(a1-6)]Man(b1-4)GlcNAc(b1-4)GlcNAc
Method in brief: as §1

[3] = target: Gal(a1-3)Gal(b1-4)GlcNAc(b1-3)GalNAc
Method in brief: as §1

[4] = target: Gal(a1-3)Gal(b1-4)GlcNAc(b1-6)GalNAc
Method in brief: as §1

[5] = target: Gal(a1-3)Gal(b1-4)[Fuc(a1-3)]GlcNAc
Method in brief: as §1

[6] = target: Gal(a1-3)Gal(b1-4)[Fuc(a1-3)]GlcNAc(b1-2)Man(a1-3)[Gal(a1-3)Gal(b1-4)[Fuc(a1-3)]GlcNAc(b1-2)Man(a1-6)]Man(b1-4)GlcNAc(b1-4)GlcNAc
Method in brief: as §1

Gal(a1-3)GalNAc = target: Gal(a1-3)GalNAc
Method in brief: as §1

[7] = target: Gal(a1-3)[Gal(a1-4)]Gal(b1-4)GlcNAc
Method in brief: as §1

[8] = target: Gal(a1-4)Gal(b1-3)GlcNAc(b1-2)Man(a1-3)[Gal(a1-4)Gal(b1-3)GlcNAc(b1-2)Man(a1-6)]Man(b1-4)GlcNAc(b1-4)GlcNAc
Method in brief: as §1

Gal(a1-4)Gal(b1-4)Glc = target: Gal(a1-4)Gal(b1-4)Glc
Method in brief: as §1

Gal(a1-4)Gal(b1-4)GlcNAc = target: Gal(a1-4)Gal(b1-4)GlcNAc
Method in brief: as §1

[9] = target: Gal(a1-4)Gal(b1-4)GlcNAc(b1-2)Man(a1-3)[Gal(a1-4)Gal(b1-4)GlcNAc(b1-2)Man(a1-6)]Man(b1-4)GlcNAc(b1-4)GlcNAc
Method in brief: as §1

[10] = target: Gal(a1-4)Gal(b1-4)GlcNAc(b1-3)Gal(b1-4)Glc
Method in brief: as §1

Gal(a1-4)GlcNAc = target: Gal(a1-4)GlcNAc
Method in brief: as §1

Gal(a1-6)Glc = target: Gal(a1-6)Glc
Method in brief: as §1

Gal(b1-2)Gal = target: Gal(b1-2)Gal
Method in brief: as §1

Gal(b1-3)Gal = target: Gal(b1-3)Gal
Method in brief: as §1

Gal(b1-3)Gal(b1-4)GlcNAc = target: Gal(b1-3)Gal(b1-4)GlcNAc
Method in brief: as §1

Gal(b1-3)GalNAc = target: Gal(b1-3)GalNAc
Method in brief: as §1

[11] = target: Gal(b1-3)GalNAc(a1-3)[Fuc(a1-2)]Gal(b1-4)Glc
Method in brief: as §1

[12] = target: Gal(b1-3)GalNAc(a1-3)[Fuc(a1-2)]Gal(b1-4)GlcNAc
Method in brief: as §1

Gal(b1-3)GalNAc(b1-3)Gal = target: Gal(b1-3)GalNAc(b1-3)Gal
Method in brief: as §1

[13] = target: Gal(b1-3)GalNAc(b1-3)Gal(a1-4)Gal(b1-4)Glc
Method in brief: as §1

[14] = target: Gal(b1-3)GalNAc(b1-4)Gal(b1-4)Glc
Method in brief: as §1

[15] = target: Gal(b1-3)GalNAc(b1-4)[Neu5Ac(a2-3)]Gal(b1-4)Glc
Method in brief: as §1

Gal(b1-3)GlcNAc = target: Gal(b1-3)GlcNAc
Method in brief: as §1

[16] = target: Gal(b1-3)GlcNAc(a1-3)Gal(b1-4)GlcNAc
Method in brief: as §1

[17] = target: Gal(b1-3)GlcNAc(a1-6)Gal(b1-4)GlcNAc
Method in brief: as §1

Gal(b1-3)GlcNAc(b1-2)Man = target: Gal(b1-3)GlcNAc(b1-2)Man
Method in brief: as §1

B1: a L Fucosidase (Streptosporangium roseum), D2B1P1_STRRD (protein)
chain: MRRKLLLVPAVGLLVIGSIFATQPVASADTPPVYEPTVESLNSHPVPQWFNDDKFGIFIHWGAYSVPAWGPRGSYAEWYGNYMNAGGSATNAHHKATYGQDFNYDAFLQQWKAEKFDPADWVKLFKDAGAKYFVLTSKHHEGMALWDSKSSGRDSVDLGPGRDLAKELFDAARKDEAKLKAGFYYSLYEWYNPAYTGRPATNPYTGAEIPYTGAPGGGDYVKDYMLPQMRELIDGYDPDIIWCDGQWEKPASYWNTAGVIADYYNKALNSGKEVAVANRCKIQSGNLDSPELDFQTPEYTVKPDIDPVKWESSRGIAHSYGYNQNEPEEDHLTSDQLVDSLVDIVSKNGNLLLDIGPKADGTIPEIQRQRLLDIGAWLKANGEAIYGTTYWNRAEEKGGPDDVRYTAKDATLYATALKWPGEQLTLGADLPVDHSTRITMLGSGARLSWSRDEQGRVVVNTPQEAGKHAYVFKIETPGVRSLLRTSSSLAKEIAPGRTISGELTVTNPGKRHTPATKLSLTVPQGWTATLGAPRVRPLGPGESVKVPISVSAPEGVAPAPYTLGLYQRTGRMGTTTALPLTVNRPNLSLGKPATQKSTGYDAPASRAVDGNTGGDWSAGSTTHTAEPEKQAWWQVDLGASARLDSVDVWNRLDCCADRLKDFWVMASDQPFTTDDLDQARTAPGVTAVHVGEQAGSPSKVKLPEGTRGRYVRIQLASPSNPLSLAEVQVRGSMARPNLSLGKPATQKSTGYDAPASRAVDGNTGGDWSAGSTTHTAEPEKQAWWQVDLGASARLDSVDVWNRLDCCADRLKDFWVMASDQPFTTDDLDQARTAPGVTAVHVGEQAGSPSKVKLPEGTRGRYVRIQLASPSNPLSLAEVQVRLEHHHHHHS
With B1 the “glycan array binding signal (z-score)” value (Gal(a1-3)Gal(b1-4)GlcNAc) was -0.528, the “glycan array binding signal (z-score)” value [1] was 0.657 and the “glycan array binding signal (z-score)” value [2] was -0.238. The “glycan array binding signal (z-score)” value [3] was 0.059, the “glycan array binding signal (z-score)” value [4] was 0.325 and the “glycan array binding signal (z-score)” value [5] was -0.582. The “glycan array binding signal (z-score)” value [6] was -0.18, the “glycan array binding signal (z-score)” value (Gal(a1-3)GalNAc) was -0.534 and the “glycan array binding signal (z-score)” value [7] was -0.569. The “glycan array binding signal (z-score)” value [8] was 0.753, the “glycan array binding signal (z-score)” value (Gal(a1-4)Gal(b1-4)Glc) was -0.381 and the “glycan array binding signal (z-score)” value (Gal(a1-4)Gal(b1-4)GlcNAc) was -0.527. The “glycan array binding signal (z-score)” value [9] was -0.128, the “glycan array binding signal (z-score)” value [10] was -0.276 and the “glycan array binding signal (z-score)” value (Gal(a1-4)GlcNAc) was -0.412. The “glycan array binding signal (z-score)” value (Gal(a1-6)Glc) was -0.266, the “glycan array binding signal (z-score)” value (Gal(b1-2)Gal) was -0.033 and the “glycan array binding signal (z-score)” value (Gal(b1-3)Gal) was -0.424. The “glycan array binding signal (z-score)” value (Gal(b1-3)Gal(b1-4)GlcNAc) was -0.542, the “glycan array binding signal (z-score)” value (Gal(b1-3)GalNAc) was -0.32 and the “glycan array binding signal (z-score)” value [11] was 0.138. The “glycan array binding signal (z-score)” value [12] was 0.097, the “glycan array binding signal (z-score)” value (Gal(b1-3)GalNAc(b1-3)Gal) was -0.526 and the “glycan array binding signal (z-score)” value [13] was -0.265. For the same binder, the “glycan array binding signal (z-score)” value [14] was -0.382, the “glycan array binding signal (z-score)” value [15] was -0.462 and the “glycan array binding signal (z-score)” value (Gal(b1-3)GlcNAc) was -0.427. For the same binder, the “glycan array binding signal (z-score)” value [16] was -0.506, the “glycan array binding signal (z-score)” value [17] was -0.507 and the “glycan array binding signal (z-score)” value (Gal(b1-3)GlcNAc(b1-2)Man) was 0.534.

Reference: the supplement of paper PMC8728848
